Test results reported in a collection of fitness landscapes (doi:10.1016/j.celrep.2020.107928).
Whole data set: some 81,000 sequences, median “one-hybrid fitness for binding parS DNA” near -0.17, cut for the highest 2% near 0.51. The list shows a part of the results.

B1: Caulobacter ParB omega fusion; a variant is named by its letters at X, in order, B8GW30 (parent)
chain: MESVVVGEPGMSEGRRGLGRGLSALLGEVDAAPAQAPGEQLGGSREAPIEILQRNPDQPRRTFREEDLEDLSNSIREKGVLQPILVRPSPDTAGEYQIVAGERAWRAAQRAGLKTVPIMVRELDDLAVLEIGIIENVQRADLNVLEEALSYKVLMEKFERTQENIAQTIGKSXSHVANXMRLLXLPDEVQSYLVSGELTAXHARAIAAAADPVALAKQIIEGGLSVRETEALARKAPNLSAGKSKGGRPPRVKDTDTQALESDLSSVLGLDVSIDHRGSTGTLTITYATLEQLDDLCNRLTRGI

Variants of: B1
Experiment: one-hybrid fitness for binding parS DNA (scaled: cognate 1, non-cognate 0); higher = stronger binding
Conditions: with parS DNA site
Method in brief: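 Bacterial one-hybrid selection in E. coli USO rpoZ- hisB- pyrF- with a HIS3 reporter carrying the site 19 bp from the promoter, screening Caulobacter ParB libraries with four specificity codons randomised (NNS). Cells grew 48 hours at 37°C on M9-minus-histidine plus 0.1 mM IPTG and 5 mM 3-AT. Plasmids before and after selection were Illumina-sequenced, three replicate libraries pooled, and variants under 10 reads dropped. Fitness is the log change in variant-to-wild-type read ratio, rescaled to cognate 1, non-cognate 0.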

Variant | one-hybrid fitness for binding parS DNA
GHAC | ≤ 0.2
HAMS | ≤ 0.2
GVRQ | ≤ 0.2
SRHL | ≤ 0.2
GTHS | ≤ 0.2
TSHK | ≤ 0.2
EIFV | 0.223
WHPC | ≤ 0.2
RHHV | ≤ 0.2
IQAC | ≤ 0.2
ERRR | ≤ 0.2
EGHR | ≤ 0.2
ECHR | ≤ 0.2
PRFY | ≤ 0.2
HCLR | ≤ 0.2
PHLI | ≤ 0.2
PPYL | ≤ 0.2
TTHI | ≤ 0.2
RPHD | ≤ 0.2
AKPK | ≤ 0.2
LKWT | ≤ 0.2
SNVT | ≤ 0.2
ATSF | ≤ 0.2
CMGF | ≤ 0.2
NAKM | ≤ 0.2
NHML | ≤ 0.2

Variant | one-hybrid fitness for binding parS DNA
QQPG | ≤ 0.2
RMKY | 0.782
FDTR | ≤ 0.2
SNPG | ≤ 0.2
DWSR | 0.213
RKHH | ≤ 0.2
NHIR | ≤ 0.2
YDHR | ≤ 0.2
DREI | ≤ 0.2
TPVL | ≤ 0.2
AEDY | ≤ 0.2
HLWA | ≤ 0.2
TCKV | ≤ 0.2
WDAD | ≤ 0.2
REAF | ≤ 0.2
VPPS | ≤ 0.2
NLTS | ≤ 0.2
RLYE | ≤ 0.2
AVTL | ≤ 0.2
TRFV | ≤ 0.2
SDMP | ≤ 0.2
FYDS | ≤ 0.2
PAYM | ≤ 0.2
TYCH | ≤ 0.2
GEMG | ≤ 0.2
QWSG | ≤ 0.2

Variant | one-hybrid fitness for binding parS DNA
IGKR | ≤ 0.2
LYTL | ≤ 0.2
LRGK | ≤ 0.2
SRHN | ≤ 0.2
QRIP | ≤ 0.2
SFQA | ≤ 0.2
KGRF | ≤ 0.2
AWHS | ≤ 0.2
MSTY | ≤ 0.2
PRRH | ≤ 0.2
SSTI | ≤ 0.2
GTES | ≤ 0.2
TENR | ≤ 0.2
RQTP | ≤ 0.2
YMRM | ≤ 0.2
FKPP | 0.292
RECK | ≤ 0.2
GISW | ≤ 0.2
RVTP | ≤ 0.2
SYAL | ≤ 0.2
NILV | ≤ 0.2
ANRV | ≤ 0.2
RMSS | 0.977
FGFG | ≤ 0.2
TNVP | ≤ 0.2
WLMM | ≤ 0.2

Variant | one-hybrid fitness for binding parS DNA
RICS | 1.02
AKGT | ≤ 0.2
GPIL | ≤ 0.2
QWRP | ≤ 0.2
KEDV | ≤ 0.2
QYCY | ≤ 0.2
TRAR | ≤ 0.2
PPSE | ≤ 0.2
YITS | ≤ 0.2
CLRA | ≤ 0.2
NLCR | ≤ 0.2
QEKK | ≤ 0.2
HRIA | ≤ 0.2
YSVL | ≤ 0.2
TFCC | ≤ 0.2
QTRM | ≤ 0.2
DYLL | ≤ 0.2
LRKE | ≤ 0.2
TSYY | ≤ 0.2
GVER | ≤ 0.2
AAVV | ≤ 0.2
LFPI | ≤ 0.2
YERG | ≤ 0.2
MSHV | ≤ 0.2
EVLY | ≤ 0.2
RMGH | ≤ 0.2

Variant | one-hybrid fitness for binding parS DNA
YWCL | ≤ 0.2
RLLW | 0.241
AWCL | ≤ 0.2
QKAG | ≤ 0.2
KGWD | ≤ 0.2
PSIS | ≤ 0.2
NNGF | ≤ 0.2
DPTN | ≤ 0.2
GKCT | ≤ 0.2
GHYY | ≤ 0.2
QWGS | ≤ 0.2
SPIV | ≤ 0.2
ATPT | ≤ 0.2
VRGH | ≤ 0.2
EGKG | 0.219
SYTD | ≤ 0.2
ADLG | ≤ 0.2
KFGW | ≤ 0.2
DGTL | ≤ 0.2
SQVR | ≤ 0.2
ADVC | ≤ 0.2
HLKS | ≤ 0.2
LWAG | ≤ 0.2
ASCS | ≤ 0.2
STCM | ≤ 0.2
VPAM | ≤ 0.2

Variant | one-hybrid fitness for binding parS DNA
WISR | ≤ 0.2
VTYT | ≤ 0.2
AMPP | ≤ 0.2
VDSA | ≤ 0.2
HMPW | ≤ 0.2
RRVF | ≤ 0.2
TLGN | ≤ 0.2
LVDY | ≤ 0.2
QTCR | ≤ 0.2
GVGG | ≤ 0.2
QARI | ≤ 0.2
LPDL | ≤ 0.2
PWLF | ≤ 0.2
VNVG | ≤ 0.2
FQNG | ≤ 0.2
DSTV | ≤ 0.2
RWIV | ≤ 0.2
DYIG | ≤ 0.2
FDMG | ≤ 0.2
ENHG | ≤ 0.2
RIVK | ≤ 0.2
AHRV | ≤ 0.2
KIVD | ≤ 0.2
